From paper PMC5489699 come the findings set out here.

In experiment [1] the target is T1, HECTD3-eYFP fusion protein (human) (UniProt Q5T447).
T1 sequence: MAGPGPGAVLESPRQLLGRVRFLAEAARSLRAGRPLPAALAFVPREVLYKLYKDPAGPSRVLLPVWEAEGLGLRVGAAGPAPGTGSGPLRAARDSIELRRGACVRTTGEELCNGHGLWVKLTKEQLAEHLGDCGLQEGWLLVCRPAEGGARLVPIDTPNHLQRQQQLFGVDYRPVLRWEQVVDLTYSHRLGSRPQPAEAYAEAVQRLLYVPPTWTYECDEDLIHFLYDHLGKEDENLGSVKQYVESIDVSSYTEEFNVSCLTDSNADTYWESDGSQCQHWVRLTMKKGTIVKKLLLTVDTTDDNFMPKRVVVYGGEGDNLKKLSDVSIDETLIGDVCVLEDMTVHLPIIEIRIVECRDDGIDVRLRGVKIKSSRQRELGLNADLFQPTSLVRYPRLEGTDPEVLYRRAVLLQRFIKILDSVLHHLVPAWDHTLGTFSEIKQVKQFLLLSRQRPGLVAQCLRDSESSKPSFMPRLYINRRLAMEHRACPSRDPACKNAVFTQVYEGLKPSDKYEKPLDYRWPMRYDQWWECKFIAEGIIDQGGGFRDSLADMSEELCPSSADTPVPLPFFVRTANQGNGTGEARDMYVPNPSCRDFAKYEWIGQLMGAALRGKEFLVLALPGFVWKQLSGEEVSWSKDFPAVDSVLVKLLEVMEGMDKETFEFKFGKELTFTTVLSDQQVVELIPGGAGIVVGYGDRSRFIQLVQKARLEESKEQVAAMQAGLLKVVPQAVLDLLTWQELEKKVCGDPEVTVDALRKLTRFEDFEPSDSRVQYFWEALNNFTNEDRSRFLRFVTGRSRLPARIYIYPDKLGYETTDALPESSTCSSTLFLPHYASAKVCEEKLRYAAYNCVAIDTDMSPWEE
Kind of experiment: co-IP; GFP-trap from HEK293 lines expressing eYFP-HECTD3, HECTD3-eYFP or eYFP; cells exposed to AUY922 for increasing times; western blots for HSP90, CRAF, CDC37. In general terms: In western blotting, separated proteins are transferred to a membrane and probed.

Experiment [2] has as its target T2, eYFP-HECTD3 fusion protein (human) (UniProt Q5T447).
T2 sequence: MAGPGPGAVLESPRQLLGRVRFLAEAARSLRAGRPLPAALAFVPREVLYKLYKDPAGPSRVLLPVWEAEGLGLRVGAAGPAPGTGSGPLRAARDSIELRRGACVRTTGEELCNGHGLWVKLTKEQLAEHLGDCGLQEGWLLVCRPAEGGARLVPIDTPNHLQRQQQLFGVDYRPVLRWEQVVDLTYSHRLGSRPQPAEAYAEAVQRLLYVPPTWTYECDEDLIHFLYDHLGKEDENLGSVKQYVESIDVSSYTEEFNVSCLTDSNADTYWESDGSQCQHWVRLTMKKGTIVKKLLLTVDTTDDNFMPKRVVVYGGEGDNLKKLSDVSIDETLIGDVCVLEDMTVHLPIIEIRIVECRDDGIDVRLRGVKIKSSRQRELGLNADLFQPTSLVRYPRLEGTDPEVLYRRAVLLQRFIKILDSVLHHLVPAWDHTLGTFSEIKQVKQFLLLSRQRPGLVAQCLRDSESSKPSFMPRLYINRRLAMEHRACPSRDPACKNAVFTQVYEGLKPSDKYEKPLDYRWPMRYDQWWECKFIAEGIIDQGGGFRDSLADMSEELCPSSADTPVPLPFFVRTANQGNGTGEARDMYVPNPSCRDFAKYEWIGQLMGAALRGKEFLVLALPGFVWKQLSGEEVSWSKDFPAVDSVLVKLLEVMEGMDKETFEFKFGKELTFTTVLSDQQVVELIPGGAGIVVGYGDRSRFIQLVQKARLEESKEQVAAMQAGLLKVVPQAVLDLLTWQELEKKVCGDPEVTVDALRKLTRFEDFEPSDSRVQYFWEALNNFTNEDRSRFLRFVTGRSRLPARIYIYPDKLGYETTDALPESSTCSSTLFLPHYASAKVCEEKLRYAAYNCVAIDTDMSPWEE
The description is as above.

Experiment [3] deals with T3, GST fusion of the isolated HECTD3 DOC domain (human) (UniProt Q5T447).
T3 sequence: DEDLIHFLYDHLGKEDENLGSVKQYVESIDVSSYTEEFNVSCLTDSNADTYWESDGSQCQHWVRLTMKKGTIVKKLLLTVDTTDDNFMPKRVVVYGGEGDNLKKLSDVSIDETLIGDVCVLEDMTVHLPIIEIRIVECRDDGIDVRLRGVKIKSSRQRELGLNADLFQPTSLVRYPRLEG
In words: co-IP; purified GST-DOC added to HEK293 lysate pretreated 120 min at 4°C with 0-3,200 nM AUY922; GST-Trap resin; western blots for endogenous CRAF and HSP90; only the target purified.

Experiment [4] deals with eYFP-CRAF fusion protein (full-length human CRAF with an N-terminal enhanced yellow fluorescent protein) (human) (UniProt P04049). Kind of experiment: co-IP; 60 μg purified His-HECTD3, GST-DOC or GST-HECT added to lysate of HEK293 cells expressing eYFP or eYFP-CRAF (25 mM HEPES pH 7.8, 0.5 mM EDTA, 150 mM NaCl, 10% glycerol, 0.5% Triton), 2 hr at 4°C; GFP-Trap resin; western blot with α-His or α-GST; only the binder purified.

For experiment [5] the target is unchanged. Kind of experiment: co-IP; eYFP-CRAF immunoprecipitated from HEK293 cells stably expressing it (with or without AUY922 treatment); western blot for endogenous HECTD3.
The target in experiment [6] is endogenous CRAF (human (endogenous in HEK293)) (UniProt P04049). Kind of experiment: proximity ligation; Duolink In Situ Red kit on fixed, permeabilised HEK293 cells (eYFP control in cells expressing eYFP); untreated or treated with AUY922 for 18 hr; foci per cell counted.

These are yes or no findings as the source states them, for the method shown. Binding seen in cells or lysates may run through a third protein. Some binding calls cover weakened binding; strength is not graded here. For some of these results: Tags and fused reporters may be left off the sequences shown.

In the case of “endogenous CRAF (from UniProt P04049 1-648)”, the binding result in experiment [1], in experiment [2] and in experiment [3] was “binds” in each case.

B1: CDC37, kinase-specific co-chaperone, endogenous (protein, UniProt Q16543 1-378)
chain: MVDYSVWDHIEVSDDEDETHPNIDTASLFRWRHQARVERMEQFQKEKEELDRGCRECKRKVAECQRKLKELEVAEGGKAELERLQAEAQQLRKEERSWEQKLEEMRKKEKSMPWNVDTLSKDGFSKSMVNTKPEKTEEDSEEVREQKHKTFVEKYEKQIKHFGMLRRWDDSQKYLSDNVHLVCEETANYLVIWCIDLEVEEKCALMEQVAHQTIVMQFILELAKSLKVDPRACFRQFFTKIKTADRQYMEGFNDELEAFKERVRGRAKLRIEKAMKEYEEEERKKRLGPGGLDPVEVYESLPEELQKCFDVKDVQMLQDAISKMDPTDAKYHMQRCIDSGLWVPNSKASEAKEGEEAGPGDPLLEAVPKTGDEKDVSV
For the molecule B1, the binding result in experiment [1] and in experiment [2] was “binds” each time.

B2: GST fusion of the isolated HECTD3 DOC domain (domain or fragment, UniProt Q5T447 219-398)
chain: DEDLIHFLYDHLGKEDENLGSVKQYVESIDVSSYTEEFNVSCLTDSNADTYWESDGSQCQHWVRLTMKKGTIVKKLLLTVDTTDDNFMPKRVVVYGGEGDNLKKLSDVSIDETLIGDVCVLEDMTVHLPIIEIRIVECRDDGIDVRLRGVKIKSSRQRELGLNADLFQPTSLVRYPRLEG
Regarding B2, the binding entry in experiment [4] is on record as “binds”.

B3: GST fusion of the isolated HECTD3 HECT domain (domain or fragment, UniProt Q5T447 512-861)
chain: YEKPLDYRWPMRYDQWWECKFIAEGIIDQGGGFRDSLADMSEELCPSSADTPVPLPFFVRTANQGNGTGEARDMYVPNPSCRDFAKYEWIGQLMGAALRGKEFLVLALPGFVWKQLSGEEVSWSKDFPAVDSVLVKLLEVMEGMDKETFEFKFGKELTFTTVLSDQQVVELIPGGAGIVVGYGDRSRFIQLVQKARLEESKEQVAAMQAGLLKVVPQAVLDLLTWQELEKKVCGDPEVTVDALRKLTRFEDFEPSDSRVQYFWEALNNFTNEDRSRFLRFVTGRSRLPARIYIYPDKLGYETTDALPESSTCSSTLFLPHYASAKVCEEKLRYAAYNCVAIDTDMSPWEE
Turning to B3, the binding result in experiment [4] is listed as “no binding (tested: 60 μg added to 300–500 μL lysate)”.

B4: His6-tagged full-length HECTD3 (enzyme, UniProt Q5T447 1-861)
chain: MAGPGPGAVLESPRQLLGRVRFLAEAARSLRAGRPLPAALAFVPREVLYKLYKDPAGPSRVLLPVWEAEGLGLRVGAAGPAPGTGSGPLRAARDSIELRRGACVRTTGEELCNGHGLWVKLTKEQLAEHLGDCGLQEGWLLVCRPAEGGARLVPIDTPNHLQRQQQLFGVDYRPVLRWEQVVDLTYSHRLGSRPQPAEAYAEAVQRLLYVPPTWTYECDEDLIHFLYDHLGKEDENLGSVKQYVESIDVSSYTEEFNVSCLTDSNADTYWESDGSQCQHWVRLTMKKGTIVKKLLLTVDTTDDNFMPKRVVVYGGEGDNLKKLSDVSIDETLIGDVCVLEDMTVHLPIIEIRIVECRDDGIDVRLRGVKIKSSRQRELGLNADLFQPTSLVRYPRLEGTDPEVLYRRAVLLQRFIKILDSVLHHLVPAWDHTLGTFSEIKQVKQFLLLSRQRPGLVAQCLRDSESSKPSFMPRLYINRRLAMEHRACPSRDPACKNAVFTQVYEGLKPSDKYEKPLDYRWPMRYDQWWECKFIAEGIIDQGGGFRDSLADMSEELCPSSADTPVPLPFFVRTANQGNGTGEARDMYVPNPSCRDFAKYEWIGQLMGAALRGKEFLVLALPGFVWKQLSGEEVSWSKDFPAVDSVLVKLLEVMEGMDKETFEFKFGKELTFTTVLSDQQVVELIPGGAGIVVGYGDRSRFIQLVQKARLEESKEQVAAMQAGLLKVVPQAVLDLLTWQELEKKVCGDPEVTVDALRKLTRFEDFEPSDSRVQYFWEALNNFTNEDRSRFLRFVTGRSRLPARIYIYPDKLGYETTDALPESSTCSSTLFLPHYASAKVCEEKLRYAAYNCVAIDTDMSPWEE
In the case of B4, in experiment [4], the binding entry is on record as “binds”.

B5: HECTD3, full-length 97-kDa form, endogenous (protein, UniProt Q5T447 1-861)
chain: MAGPGPGAVLESPRQLLGRVRFLAEAARSLRAGRPLPAALAFVPREVLYKLYKDPAGPSRVLLPVWEAEGLGLRVGAAGPAPGTGSGPLRAARDSIELRRGACVRTTGEELCNGHGLWVKLTKEQLAEHLGDCGLQEGWLLVCRPAEGGARLVPIDTPNHLQRQQQLFGVDYRPVLRWEQVVDLTYSHRLGSRPQPAEAYAEAVQRLLYVPPTWTYECDEDLIHFLYDHLGKEDENLGSVKQYVESIDVSSYTEEFNVSCLTDSNADTYWESDGSQCQHWVRLTMKKGTIVKKLLLTVDTTDDNFMPKRVVVYGGEGDNLKKLSDVSIDETLIGDVCVLEDMTVHLPIIEIRIVECRDDGIDVRLRGVKIKSSRQRELGLNADLFQPTSLVRYPRLEGTDPEVLYRRAVLLQRFIKILDSVLHHLVPAWDHTLGTFSEIKQVKQFLLLSRQRPGLVAQCLRDSESSKPSFMPRLYINRRLAMEHRACPSRDPACKNAVFTQVYEGLKPSDKYEKPLDYRWPMRYDQWWECKFIAEGIIDQGGGFRDSLADMSEELCPSSADTPVPLPFFVRTANQGNGTGEARDMYVPNPSCRDFAKYEWIGQLMGAALRGKEFLVLALPGFVWKQLSGEEVSWSKDFPAVDSVLVKLLEVMEGMDKETFEFKFGKELTFTTVLSDQQVVELIPGGAGIVVGYGDRSRFIQLVQKARLEESKEQVAAMQAGLLKVVPQAVLDLLTWQELEKKVCGDPEVTVDALRKLTRFEDFEPSDSRVQYFWEALNNFTNEDRSRFLRFVTGRSRLPARIYIYPDKLGYETTDALPESSTCSSTLFLPHYASAKVCEEKLRYAAYNCVAIDTDMSPWEE
Regarding B5, the binding result in experiment [5] and in experiment [6] was “binds” each time.
